Sequences and labels used below:
B1: chr14:80199969:80200157:-|3pUTR|ENSG00000211448|msi1|FALSE|unique (ssRNA)
RNA: GGGAGUUCUACAGUCCGACGAUCUUUAUGAUUUCUUGUGAUGUAUUCUUUUAUGAAAUUAACAAGAACUCAUUAUUUUGAGGUAGAGGAAAAUCAAUGCUUUAUCUGAUAUGCUGAGAAAUUAUUAGAUUGCCAAUACUCAUGCAACAGAGGAUUGAGCAUCA
B2: chr18:5392435:5392536:-|3pUTR|ENSG00000082397|msi1|total|mutant (ssRNA)
RNA: GGGAGUUCUACAGUCCGACGAUCAAGCCUUAAACUGUACAGAAUUUCCACUGUAAUUAAAACUAUUCCGUGUCCGUUAUAAACCGCCUUCAAAAAGAGAGAUUCUCCAUUACACGAUCACCUGCAUCACAGCCCAUGGUGAAUCAACAGAGGAUUGAGCAUCA
B3: chr9:16436428:16436529:-|CDS|ENSG00000173068|msi1|FALSE|unique (ssRNA)
RNA: GGGAGUUCUACAGUCCGACGAUCCUCCCUAGCCAGCUAGUAUUUUCUGGGCUAAAGACUGUACAACCAGUUCCUCCAUUUUAUAGAAGUUUACUCACUCCAGGGGAAAUGGUGAGUCCUCCAACCUCCCUCCCAACCAGUCCCCAACAGAGGAUUGAGCAUCA
B4: chr15:43617570:43618356:-|three_prime_utr|ENSG00000284772|control|control|control (ssRNA)
RNA: GGGAGUUCUACAGUCCGACGAUCUACAUUCCUGGCCAACAUUUCUUCUUCCUUUGAGCCUGGGAGAAUGGGGGAAGGACCAGUAGGAGAGCCCCCACCUCUCCAGCCGCCUGCUCUGCGGCUCCAUGAUUUUCUAGUGACACUCAACAGAGGAUUGAGCAUCA
B5: chr12:53210768:53210868:-|3pUTR|ENSG00000172819|msi1_unk|FALSE|overlapping (ssRNA)
RNA: GGGAGUUCUACAGUCCGACGAUCAGGGGGGAUGCUGCUUAGCUGAUCCCGCCCUGACCCAGAGGAAGCCUCUAUUUAUUUAUUAGCUUUUGUUUACACCGUGGAAUUGACCCCUUCCUCCAGGGGUCUUGGGUGGGGGAGCCCCAACAGAGGAUUGAGCAUCA
B6: ENSG00000124766:be:win_1351|CDS_3pUTR|ENSG00000124766|bound_else_gene|NA|bound_elsewhere_windowed (ssRNA)
RNA: GGGAGUUCUACAGUCCGACGAUCACGCCCGAGGUGAGCGAGAUGAUCUCGGGAGACUGGCUCGAGUCCAGCAUCUCCAACCUGGUUUUCACCUACUGAAGGGCGCGCAGGCAGGGAGAAGGGCCGGGGGGGGUAGGAGAGGAGCAACAGAGGAUUGAGCAUCA
B7: chr1:183143318:183143419:+|3pUTR|ENSG00000135862|msi1|FALSE|unique (ssRNA)
RNA: GGGAGUUCUACAGUCCGACGAUCACAUCCUGUGCCAAAGGUAUUGGUCAUUUAGAAUGUCGGUAGCCAUCCAUCAGUGCUUUUAGUUAUUAUGAGUGUAGGACACUGAGCCAUCCGUGGGUCAGGAUGCAAUUAUUUAUAAAACAACAGAGGAUUGAGCAUCA
B8: ENSG00000136451:be:win_3801|3pUTR|ENSG00000136451|bound_else_gene|NA|bound_elsewhere_windowed (ssRNA)
RNA: GGGAGUUCUACAGUCCGACGAUCACCCCUAAGCUAGAAUGUGGUUGUCAGAACCCUGAAAGUAUUAGUUCUAAAAAAAAAAAGAUAUAUACUAGAAGUAAUUGUUUUAUCAAUUCAUUGUAUAAUAAACAGGAGUGAGACUUCCAACAGAGGAUUGAGCAUCA
B9: chr10:16593140:16593241:-|3pUTR|ENSG00000148484|unk|FALSE|unique (ssRNA)
RNA: GGGAGUUCUACAGUCCGACGAUCUUAUUUUUCUUUUCACUCUCUUUCUAAUGCUUCCCACCUUACCUUUUAGAUUCUUUUGCUAGGUGGGAGAUUGUUAUAAGGUCUUUAAACCAUUUCCAUUUGUUUCUUUAACAUUACCAACAACAGAGGAUUGAGCAUCA
B10: chr17:58089516:58089557:+|3pUTR|ENSG00000264364|msi1_unk|FALSE|overlapping (ssRNA)
RNA: GGGAGUUCUACAGUCCGACGAUCGAAGGCUGCUUUAUGUUUAUUUUUCAAGACUUUAAAAAUAUUUUUUGGUUGUAUUGCACUAGGAAAUCUCUCCCACCUCUCCCUUUUCUCUUUCUUUCCCUAUACAAAAUAAAAGGCCCACAACAGAGGAUUGAGCAUCA
B11: chr9:88475159:88475277:+|CDS|ENSG00000106723|unk|total|mutant (ssRNA)
RNA: GGGAGUUCUACAGUCCGACGAUCACAAGUGGAAUAUGCCAAAGAAGAUGGCUCGAAAAGGACUGGCAUGGUCAUUCAUCAAGCCGAAGCCAAGCCCUCCGUCUAUUUCAUCAAGUUUGAUGAUGAUUUCCAUAUUUAUGUCUACAACAGAGGAUUGAGCAUCA
B12: chr7:152649051:152649153:-|CDS|ENSG00000196584|unk|FALSE|unique (ssRNA)
RNA: GGGAGUUCUACAGUCCGACGAUCAGCUCUGAAGAAAUAAUCAAAUACUGCCUGGGAAGAUUUUUUUUGGUGUACUGCAGUAGUAGCACCCACUUACUUCUUACACUUUACUCACUAGAAAGUAUGUUUUGUAGUCACCCAUCUCAACAGAGGAUUGAGCAUCA
B13: chr6:52791370:52791857:-|three_prime_utr|ENSG00000243955|control|control|control (ssRNA)
RNA: GGGAGUUCUACAGUCCGACGAUCGCUAAUGAACUCUUUCAAAUUAUAUGCUAAUUAAAUAAUACAACUCCUAUUCGCUGACUUAGUUAAAAUUGAUUUGUUUUCAUUAGGAUCUGAUGUGAAUUCAGAUUUCCAAUCUUCUCCCAACAGAGGAUUGAGCAUCA
B14: chr4:138171112:138171219:-|3pUTR|ENSG00000151012|msi1|FALSE|unique (ssRNA)
RNA: GGGAGUUCUACAGUCCGACGAUCUUUUUUUUUUUCACAUCAGUUUGAUCAGGAAAGUGUAUAACACAUCUUAGAGCAAGAGUUAGUUUGGUAUUAAAUCCUCAUUAGAACAACCACCUGUUUCACUAAUAACUUACCCCUGAUCAACAGAGGAUUGAGCAUCA
B15: ENSG00000124766:be:win_3851|3pUTR|ENSG00000124766|bound_else_gene|NA|bound_elsewhere_windowed (ssRNA)
RNA: GGGAGUUCUACAGUCCGACGAUCUCCGUUAAGGGUUUUUGUUUUUAAACUUUUUUUUGCCAUCCAUCCUGUGCAAUAUGCCGUGUAGAAUAUUUGUCUUAAAAUUCAAGGCCACAAAAACAAUGUUUGGGGGAAAAAAAAGAACAACAGAGGAUUGAGCAUCA
B16: chr19:41432845:41433434:-|three_prime_utr|ENSG00000105341|control|control|control (ssRNA)
RNA: GGGAGUUCUACAGUCCGACGAUCGCCCAGGCACCUCUCCCACCUAACCCAGAUGCAGGAGAGGAAGUGGGGAGGGGCAAUGUUAGGCAGUUCUCAUAUCCCCCUGCAUCCAUCACAAACCUAGAGUAUUUAUGGUAGAUGAGCCAACAGAGGAUUGAGCAUCA
B17: chr1:117959336:117959438:+|CDS|ENSG00000065183|unk|total|mutant (ssRNA)
RNA: GGGAGUUCUACAGUCCGACGAUCGAUUAUCUCAAGAGGGAAUGCGAGGCAAAAAGUGAAGUUAUGUUUUUUGCUGAUGCUACCCGCCACUUGGAAGAGAAGAAGAGGAAGAGGAAAAAGAGGGAGAAGUUGAUUCUAACGUUGCAACAGAGGAUUGAGCAUCA
B18: chr8:42175503:42175666:-|3pUTR|ENSG00000104368|msi1|FALSE|unique (ssRNA)
RNA: GGGAGUUCUACAGUCCGACGAUCAUGAAAGCAUGUCUCAAUAGUAAAAGAUAACAAGAUCUUUCAGGAAAGACGGAUUGCAUUAGAAAUAGACAGUAUAUUUAUAGUCACAAGAGCCCAGCAGGGCCUCAAAGUUGGGGCAGGCAACAGAGGAUUGAGCAUCA
B19: chr10:95606323:95606429:-|3pUTR|ENSG00000059573|unk|FALSE|bound_elsewhere (ssRNA)
RNA: GGGAGUUCUACAGUCCGACGAUCCCAUGGCUGCUUUGUGUCACCUCAGUGACUUACAGUCCCCCUUGGCAUUUAGUUGGUACUAGAGCCAGUCAUCCUUAACAAAUCUUUUCACAUUUUAUUUCUUUCACAUGUAGUCAUCUUCAACAGAGGAUUGAGCAUCA
B20: chr1:156742365:156742464:-|3pUTR|ENSG00000143321|msi1_unk|total|mutant (ssRNA)
RNA: GGGAGUUCUACAGUCCGACGAUCAUUUCUGAGGUGCACUGGGAGGCUCCCCUUCUAUUUGGGGCUUGAUGACUUUCUUUUUGCCGCUGGGGCUUUGAUGUUCCUUCCAGUGUCAUUUCUCAUCCACAUACCCUGACCUGGCCCCAACAGAGGAUUGAGCAUCA
B21: chr9:132262671:132262773:-|3pUTR|ENSG00000107290|unk|total|mutant (ssRNA)
RNA: GGGAGUUCUACAGUCCGACGAUCUGUGCAUUAUUUGACAUUUCCUUUGUCAUCUGCUUUUUAAGCAAAAAAGGGUUUUGUGUCCGAAAUUCUACUUGAGCAGAUUAUAAAGAGCUUUAAAAAACAACUUUCGGUUGCCAAAAGCAACAGAGGAUUGAGCAUCA
B22: chr7:33006061:33006162:+|3pUTR|ENSG00000122642|msi1_unk|FALSE|overlapping (ssRNA)
RNA: GGGAGUUCUACAGUCCGACGAUCGGCAUCUCAGACCACAAAUAGAGAAUUUGAUUCCUCAUUUGCCACAUAAGUCAUCUGCUUAGCUUUUCCUUUCCUUUUUUUUUUUUUUUUUUUUUCUGGAGGCAGAGUCUCCCUUUGUCGCAACAGAGGAUUGAGCAUCA

The other results are listed elsewhere or left out.

For the experiment, the target named is T1, UNK ZnF1-6 (called full-length) (human, UniProt Q9C0B0 30-357).
T1 sequence: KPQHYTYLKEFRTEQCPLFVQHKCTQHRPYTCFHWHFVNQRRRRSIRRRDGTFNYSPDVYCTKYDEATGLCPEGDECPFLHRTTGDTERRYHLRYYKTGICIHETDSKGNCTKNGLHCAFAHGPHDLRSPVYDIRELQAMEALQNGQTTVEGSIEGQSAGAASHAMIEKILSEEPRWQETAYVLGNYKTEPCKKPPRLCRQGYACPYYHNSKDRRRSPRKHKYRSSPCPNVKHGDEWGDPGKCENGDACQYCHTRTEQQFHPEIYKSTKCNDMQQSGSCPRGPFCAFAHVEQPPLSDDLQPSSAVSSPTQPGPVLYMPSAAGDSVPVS
As to the kind of experiment: nsRBNS (natural sequence RNA bind-n-seq); RBNS binding buffer (assumed for nsRBNS): 25 mM Tris pH 7.5, 150 mM KCl, 3 mM MgCl2, 0.01% Triton X-100, 500 ug/ml BSA, 20 U/ml SUPERase-In, 4 C; UNK is unkempt and MSI1 is Musashi-1; names of the RNAs are library labels; protein concentration not given here; high values mean tight binding.
B1 registered a binding signal of 0.598 enrichment R.
To B2 belongs 0.426 enrichment R.
Turning to B3, the binding signal was determined as 2.92 enrichment R.
Regarding B4, the binding signal came out at 0.826 enrichment R.
As for B5, the binding signal was 2.83 enrichment R.
Molecule B6 yielded a binding signal of 1 enrichment R.
Take B7: the binding signal is 2.27 enrichment R.
Consider B8, for which the binding signal is 2.41 enrichment R.
B9 displayed a binding signal of 4.14 enrichment R.
B10: the binding signal amounted to 2.4 enrichment R.
For B11, the binding signal came to 0.443 enrichment R.
Take B12: the binding signal was 0.631 enrichment R.
Consider B13, for which the binding signal was found to be 6.55 enrichment R.
Molecule B14 displayed a binding signal of 2.58 enrichment R.
On to B15, for which the binding signal came to 0.635 enrichment R.
B16 displayed a binding signal of 2.76 enrichment R.
To B17 belongs 0.706 enrichment R.
On to B18, for which the binding signal was found to be 9.38 enrichment R.
The molecule B19 came in with a binding signal of 15.5 enrichment R.
To B20 belongs 0.721 enrichment R; to B21, 0.386 enrichment R.
B22 displayed a binding signal of 7.4 enrichment R.

The values are drawn from paper PMC12136788.
